Measured values from US11130780B2, “Inhibitors of growth factor activation enzymes” (Washington University, priority 2015, dated 2021).
For at least one compound, name, drawing or mass did not settle the structure. Starred links: 1 amine or outer side, 2 acyl side, 3 side chain; linkers in the order of their positions; H or OH if unused. Non-standard residues stand in square brackets, D forms with d. Residues, ends and D or L forms follow the SMILES beside them. X1 = N=C(N)NCCC[C@H](N[*:1])C(=O)c1nc2ccc(C(=O)[*:2])cc2s1

How the values were obtained:
[1] = biological target: T1, HGFA (Homo sapiens, UniProt Q04756); test: Chromogenic kinetic enzyme inhibitor assay of HGFA; assay type: biochemical; settings: Table 4.1; chromogenic substrate Pefachrome FVIIa
T1 construct: His6 tag (N); seven amino acid spacer and seven amino acid TEV cleavage site (N); Honey Bee melittin signal peptide (N); made in house; host or cells: High 5 insect cells (baculovirus; virus raised in Sf9)
T1 sequence (Q04756 373-655): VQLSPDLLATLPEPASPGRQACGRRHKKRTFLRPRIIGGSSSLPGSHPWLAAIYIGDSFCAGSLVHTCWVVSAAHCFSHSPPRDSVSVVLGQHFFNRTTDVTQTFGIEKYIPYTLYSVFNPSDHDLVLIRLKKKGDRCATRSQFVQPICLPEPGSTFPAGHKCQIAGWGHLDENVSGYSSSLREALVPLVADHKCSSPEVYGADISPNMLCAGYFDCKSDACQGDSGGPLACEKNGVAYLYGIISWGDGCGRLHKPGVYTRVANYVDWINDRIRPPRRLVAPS
Excerpt: This PCR product was cloned into the SfoI-HindIII sites of a modified pFastBac HT baculovirus expression vector (Addgene, Cambridge, Mass.). This vector contains a six amino His tag followed by a seven amino spacer and a seven amino acid TEV cleavage site placed immediately downstream of the Honey Bee melittin signal peptide. Using a modified Bac to Bac Expression System (Life Technologies, Carlsbad, Calif.), recombinant HGFA bacmids were obtained by transforming DH10Bac Escherichia coli cells. To obtain HGFA containing baculovirus, purified bacmids were transfected into Sf9 insect cells. After 5 days in culture at 27° C., media was harvested from transfected Sf9 cells. This media was used to prepare baculovirus infected insect cells (BIICs). These BIIICs were used to infect High 5 insect cells. Four days post infection, media was harvested and recombinant protein prepared as follows. Media was chilled to 4° C. and spun at 4000×g for 20 minutes (all subsequent steps were performed at 4° C. unless noted). […] Concentrated media was then buffer exchanged in two steps, five volumes of 50 mM Na-phosphate, 500 mM NaCl, pH 6.2, followed by five volumes of 50 mM Na-phosphate, 500 mM NaCl, pH 7.5. […] Protein was quantitated using a modified Lowry protein assay (#500-0006, Bio-Rad Laboratories, Hercules, Calif.). […]

[2] = system: MDA-MB-231 cells; test: MRC5-mediated migration and invasion of MDA-MB-231 cells through Matrigel; assay type: cell-based, human; settings: 1 μM, 24 hour
Protocol: MRC5 fibroblasts were plated in the bottom well of a Boyden chamber, and incubated overnight to condition the attractant media. The following day, MDA-MB-231 or T47D cells+/−inhibitors were plated above on Matrigel coated inserts (8.0 μm membrane inserts, 12-well; Corning 3422) and incubated in FBS media overnight. Inhibitors were added to fresh media and then cells were plated above on the inserts. The cells were fixed and stained at the 24 hour time point. The inserts were then removed and mounted on glass plates where the number of migrated cells were imaged and counted at 4 fields per membrane using a light microscope at 20×.

| SMILES | IC50 [1] | MRC5-mediated migration and invasion [2] |
| --- | --- | --- |
| CC(=O)N[C@@H](CO)C(=O)N[C@H](CCCNC(=N)N)C(=O)N[C@@H](CC(C)C)C(=O)N[C@@H](CCCNC(=N)N)C(=O)c1nccs1 [Compound 6e-1, Ac-SdRLR-kt] | 1420 nM | – |
| CC(=O)N[C@@H](CO)C(=O)N[C@@H](CCCNC(=N)N)C(=O)N[C@@H](CC(C)C)C(=O)N[C@H](CCCNC(=N)N)C(=O)c1nccs1 [Compound 6e-2, Ac-SRLdR-kt] | 2240 nM | – |
| CC(=O)N[C@@H](CCCCN)C(=O)N[C@@H](CCCNC(=N)N)C(=O)N[C@@H](CC(C)C)C(=O)N[C@@H](CCCNC(=N)N)C(=O)c1nc2ccc(C(=O)N[C@H](C(N)=O)C(C)C)cc2s1 [Compound 7115, Ac-KRLR(SEQ ID NO: 8)-Kbt-Val—NH2] (Ac-KRL[X1]V-NH2) | – | abrogate |
